# Measured values from PubChem BioAssay AID463173 (ICCB-Longwood Screening Facility, Harvard Medical School, 2010).
# In all, about 52,000 compounds went through this assay and about 1,700 (3.3%) were called active. No stated cut-off is given here; in the data, active means survival mostly below about 52% (no sharp cut-off); inactive means mostly above about 56%. The list shows a part of the results.
# Tested on: Wild type
# Experiment: S. aureus survival, RN4220 and DeltatarO strains – OD600, teichoic acid synthesis inhibitors, primary screen (AID 463173)
# Conditions: S. aureus RN4220 wild type/DeltatarO growth, OD600, 18 h, hits give low values, screened at 18.75 µg/mL (by protocol)
row,Compound,survival
1,CCOc1ccccc1Nc1nnc(-c2cc3cc(Cl)ccc3oc2=O)s1,inactive: 99%
2,COc1cc(OC)cc(C(=O)Nc2ccc3c(c2)OCCO3)c1,inactive: 78%
3,COc1ccc(-c2nc3sc(CCNC(=O)C(=O)Nc4ccc(C)c(F)c4)c(C)n3n2)cc1,inactive: 66%
4,CCCn1nc(NC(=O)c2cccc(Cl)c2)c2cc3cccc(C)c3nc21,inactive: 87%
5,CCOc1ccc(NC(=O)CSC2=Nc3ccccc3C3=NC(Cc4ccccc4)C(=O)N23)cc1 (stereo not given),inactive: 79%
6,CCOC(=O)c1c(C)[nH]c(C)c1S(=O)(=O)N1CCCC(C(=O)Nc2cccc(C)n2)C1 (stereo not given),inactive: 111%
7,COc1ccc(-c2csc(N)n2)cc1OC,inactive: 112%
8,CCc1ccc(S(=O)(=O)c2cn(C)c3cc(F)c(F)cc3c2=O)cc1,inactive: 134%
9,Cc1ccc(NC(=O)Cn2c(-c3nonc3N)nc3ccccc32)cc1C,inactive: 149%
10,COc1ccccc1CN1CCN(C2CCN(C(=O)Nc3ccccc3)CC2)C(=O)C1=O,inactive: 83%
11,CC(C)(C)C(=O)Nc1cccc(C(=O)OCc2cc(=O)n3nc(C4CC4)sc3n2)c1,inactive: 56%
12,Cc1ccccc1NC(=O)CCNC(=O)Cn1ccc2ccccc2c1=O,inactive: 77%
13,CC(Nc1ccc(-c2nc(-c3ccco3)no2)cc1[N+](=O)[O-])c1ccccc1 (stereo not given),inactive: 123%
14,CN1CCN(CCCNc2c(N)c(=O)oc3ccccc23)CC1,inactive: 106%
15,CCS(=O)(=O)c1oc(-c2ccc(F)cc2)nc1S(=O)(=O)c1ccc(Br)cc1,active: -1%
16,CCOC(=O)c1ccc(NC(=O)CC2C(=O)N(c3ccc(C)cc3)C(=O)N2C2CCCC2)cc1 (stereo not given),inactive: 134%
17,COc1cc(NC(=O)c2cc3ccc4cccnc4c3[nH]2)cc(OC)c1OC,inactive: 73%
18,COc1ccccc1N1CCN(S(=O)(=O)CCNC(=O)C2CC(=O)N(c3ccccc3)C2)CC1 (stereo not given),inactive: 59%
19,CCS(=O)(=O)c1nc(S(=O)(=O)c2ccc(C)cc2)c(NCC(C)C)s1,inactive: 76%
20,CCOC(=O)N1CCc2c(sc(NCc3sccc3C)c2C(=O)Nc2cc(Cl)ccc2OC)C1,inactive: 80%
21,COC(=O)CN1C(=O)CSc2ccc(S(=O)(=O)Nc3c(C)cc(C)cc3C)cc21,inactive: 78%
22,CCOC(=O)c1ccc(NC(=O)CSc2nc(-c3cccs3)cc(C(F)(F)F)c2C#N)cc1,inactive: 85%
23,Cc1ccc(NC(=O)N2CCN(Cc3nc4ccc(C)cc4o3)CC2)c(Cl)c1,inactive: 66%
24,CC(=O)C1=C(c2ccc(Cl)c(Cl)c2)N(C(C)=O)n2cnnc2S1,inactive: 131%
25,O=C1CN(C(=O)COc2ccc(Cl)cc2)C(c2ccc(F)cc2)c2cc(Br)ccc2N1 (stereo not given),inactive: 52%
26,COc1ccc(-c2nnc(SCC(=O)Nc3cccc(Cl)c3C)nc2-c2ccc(OC)cc2)cc1,inactive: 72%
27,COc1ccc(NC(=O)CCNS(=O)(=O)c2ccc3c(c2)CCN3C(=O)C2CC2)cc1Cl,inactive: 76%
28,Cc1cc(C)n(-c2nc(C)c(C)c(=O)n2CC(=O)Nc2ccc(Cl)c(Cl)c2)n1,inactive: 84%

row,Compound,survival
1,CC(=O)Nc1ccc(NC(=O)c2c(C)nn(-c3ccccc3)c2-n2cccc2)cc1,inactive: 80%
2,Cc1ccc(CNc2ncnc3c2cnn3-c2ccc(C)cc2C)cc1,inactive: 73%
3,Cc1ccc(CNC(=O)c2ccc3c(c2)nc2n3CCCC2)cc1,inactive: 91%
4,Cc1cc(C)c(NC(=O)Cn2nnc(C(=O)Nc3ccc(F)cc3F)c2N)c(C)c1,inactive: 71%
5,COc1ccc(-c2cc(OC(=O)c3cccc(C)c3)c3c(C)oc(C)c3c(=O)c2)cc1,inactive: 131%
6,CCc1nn2c(=O)cc(COC(=O)C3CCCCC3)nc2s1,inactive: 72%
7,COc1cccc(NC(=O)c2nnn(Cc3ccc(OC)c(Br)c3)c2N)c1,inactive: 66%
8,CCOC(=O)c1cc(-c2ccccc2)n(CCCC(=O)Nc2ccc(C)cc2Cl)c1C,inactive: 91%
9,CCn1cc(C(=O)NCc2ccccc2OC)c(=O)c2cc(S(=O)(=O)N3CCCCCC3)ccc21,inactive: 74%
10,COC(=O)c1c(O)c2c([nH]c1=O)CCCC2,inactive: 109%
11,CCc1ccc(NC(=O)C2CCCN(S(=O)(=O)c3cccc4nonc34)C2)cc1 (stereo not given),inactive: 88%
12,Cc1cc(C)nc(NC(N)=NC2CCCCC2)n1,inactive: 104%
13,COc1ccc(CNC(=O)C2CCN(S(=O)(=O)c3ccc4nc5c(c(C(=O)O)c4c3)CC(C)CC5)CC2)cc1 (stereo not given),inactive: 77%
14,Cc1cc(C)c(NS(=O)(=O)c2cc(-c3cnc(C4CC4)o3)ccc2C)c(C)c1,inactive: 140%
15,COc1cccc(NS(=O)(=O)c2cc3c4c(c2)C(C)C(=O)N4CCC3)c1 (stereo not given),inactive: 73%
16,CCOc1ccc2nc3c(cc2c1)CN(CCO)C(=Nc1cccc(OC)c1)S3,inactive: 107%
17,COc1cc(-c2noc(C3CC(=O)N(c4cc(C)ccc4C)C3)n2)cc(OC)c1OC (stereo not given),inactive: 73%
18,Cc1ccsc1CCN1C(=O)N(c2ccc(F)cc2)C(=O)C1CC(=O)Nc1ccccc1 (stereo not given),inactive: 72%
19,CN1C(=O)Cc2cc(S(=O)(=O)CCC(=O)N3CCN(c4cccc(Cl)c4)CC3)ccc21,inactive: 83%
20,CCc1ccc(NC(=O)c2c(C(=O)Nc3ccccc3)sc3nc(C)cc(=O)n23)cc1,inactive: 114%
21,CCOc1ccc(NC(=O)Cn2cnc3c(oc4ccccc43)c2=O)cc1,inactive: 90%
22,COc1cccc(-c2cc(C(=O)N3CCN(c4ccc(F)cc4)CC3)no2)c1,inactive: 78%
23,COc1ccc(-n2nnnc2SCC(=O)c2ccc3c(c2)OCCO3)c(OC)c1,inactive: 111%
24,COc1ccc2c(c1)c1c(c(=O)n(-c3cccc(C)c3)c(=O)n1CC(=O)N1CCCC1)n2C,inactive: 82%
25,Cc1cc(C)c2c(=O)cc(C(=O)Nc3ccc(S(=O)(=O)Nc4onc(C)c4C)cc3)oc2c1,inactive: 85%
26,CC(C)(C)OC(=O)N1CCC(c2c(C(=O)NCc3ccccn3)cnn2-c2ccc(F)cc2)CC1,inactive: 159%
27,Cc1ccc2c(=O)cc(C(=O)Nc3c(C(=O)c4ccccc4)oc4ccccc34)oc2c1C,inactive: 94%
